In one experiment the target is Myc-OTUB1 (human) (UniProt Q96FW1). The experiment is described as follows: co-IP; HEK293T cells cotransfected with tagged plasmids for 24 h; anti-Myc, anti-HA or anti-Flag antibody-conjugated agarose beads; immunoblot.
Experiment [1] concerns the target endogenous OTUB1 (H1299 cells) (human (endogenous in H1299)) (UniProt Q96FW1). Put plainly: co-IP; endogenous proteins in H1299 cells; anti-OTUB1 antibody for immunoprecipitation, normal rabbit IgG and OTUB1-deficient cells as controls; blot with anti-SET7.
The target of experiment [2] is Flag-OTUB1-N (1–80 aa) (human) (UniProt Q96FW1). The experiment is described as follows: co-IP; HEK293T cells cotransfected with tagged plasmids for 24 h; anti-Myc, anti-HA or anti-Flag antibody-conjugated agarose beads; immunoblot.
Experiment [3] has as its target Flag-OTUB1-C (81–271 aa) (human) (UniProt Q96FW1). Described as above.
The target of the next experiment is GST-tagged OTUB1 (human) (UniProt Q96FW1). The experiment is described as follows: pull-down; GST pull-down in vitro; GST-tagged OTUB1 proteins and His-tagged SET7 each expressed in E. coli (BL21); detected with anti-His antibody.
Experiment [4] has as its target GST-tagged OTUB1-K122R (human) (UniProt Q96FW1). The description is as above.

Chains of the proteins cited; added tags and fusions are not shown. Lines headed by an entry give the natural chain unless they say otherwise; changes in a name come on top. Residues count along the entry.
UniProt Q96FW1: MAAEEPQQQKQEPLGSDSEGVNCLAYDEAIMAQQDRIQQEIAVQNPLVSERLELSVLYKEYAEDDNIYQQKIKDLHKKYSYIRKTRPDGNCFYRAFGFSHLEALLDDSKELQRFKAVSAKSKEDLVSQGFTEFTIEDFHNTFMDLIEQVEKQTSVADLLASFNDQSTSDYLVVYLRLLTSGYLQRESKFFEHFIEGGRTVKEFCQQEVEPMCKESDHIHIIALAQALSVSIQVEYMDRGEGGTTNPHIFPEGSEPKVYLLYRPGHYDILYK
Flag-OTUB1-N (1–80 aa): residues 1-80 of Q96FW1
Flag-OTUB1-C (81–271 aa): residues 81-271 of Q96FW1

Results are given in words; binding and its absence hold for the method and conditions named. Binding seen in cells or lysates may run through a third protein. Some results given as binding are weak or reduced against the parent protein; the word gives no strength. For part of these data: Sequences can lack the tags named with a protein.

B1: HA-SET7 (protein, UniProt Q8WTS6 1-366)
chain: MDSDDEMVEEAVEGHLDDDGLPHGFCTVTYSSTDRFEGNFVHGEKNGRGKFFFFDGSTLEGYYVDDALQGQGVYTYEDGGVLQGTYVDGELNGPAQEYDTDGRLIFKGQYKDNIRHGVCWIYYPDGGSLVGEVNEDGEMTGEKIAYVYPDERTALYGKFIDGEMIEGKLATLMSTEEGRPHFELMPGNSVYHFDKSTSSCISTNALLPDPYESERVYVAESLISSAGEGLFSKVAVGPNTVMSFYNGVRITHQEVDSRDWALNGNTLSLDEETVIDVPEPYNHVSKYCASLGHKANHSFTPNCIYDMFVHPRFGPIKCIRTLRAVEADEELTVAYGYDHSPPGKSGPEAPEWYQVELKAFQATQQK
As to B1, the binding entry with Myc-OTUB1 (human) is recorded as “binds”.

B2: endogenous SET7 (H1299 cells) (protein, UniProt Q8WTS6 1-366)
chain: B1 chain
Turning to B2, the binding result in experiment [1] is “binds”.

B3: Myc-SET7 (protein, UniProt Q8WTS6 1-366)
chain: B1 chain
For B3, the values for the binding result in experiment [2] and in experiment [3] were “no binding” and “binds”, respectively.

B4: His-tagged SET7 (protein, UniProt Q8WTS6 1-366)
chain: B1 chain
For the molecule B4, the binding entry (with GST-tagged OTUB1 (human); in experiment [4]) was “binds” each time.

The values above are taken from paper PMC10040876.
